From PubChem BioAssay AID1963576 (National Center for Advancing Translational Sciences (NCATS), 2024)
In all, about 46,000 compounds went through this assay and about 60 (0.1%) were called active. Inconclusive results (about 3%) are left out. Calls follow the shape of the dose curve; as a rule, active = well fitted inhibition curve with a large enough effect; inconclusive = small, poorly fitted or top-dose-only effect; inactive = no such curve, though single readings can be large or run the other way. The list shows a part of the results.

Assay: Primary qHTS assay for Inhibitors of ovarian cancer metastasis using an organotypic tumor microenvironment (TME) model. Also: nearly all actives have a fitted effect of over 65% in size.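 As to activity change, negative = inhibition: plate controls were DMSO wells for no effect and tomatine positive control wells for full effect.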
Conditions: SKOV3ip1-GFP adhesion/invasion on 3D omental model, fluorescence; series mostly up to 45.8 µM; activity change, negative = inhibition: at the top concentration
How it was run: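 Primary human omental fibroblast/mesothelial 3D culture pre-formed 48 h. SKOV3ip1-GFP cells added with compounds (0.36-46 umol/L), incubated 2 h RT/16 h 37 C, fixed; GFP cells quantified at 488/509 nm.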

outcome, inactive:
COc1ccc(-c2nc(CSc3nnc(C)n4c3cc3occc34)c(C)o2)cc1OC, CC(C)c1ccc(NC(=O)C(C)N(c2ccccc2)S(C)(=O)=O)cc1 (configuration not stated), COc1cc(OC)cc(C(=O)N2CCN(C(=O)COc3ccccc3)CC2)c1, CSc1ccc(CCNS(=O)(=O)c2ccc3c(c2)C(C)(C)C(=O)N3C)cc1, COc1ccc(NC(=O)CC2C(=O)N(c3cccc(C)c3)C(=O)N2Cc2cccnc2)cc1 (configuration not stated), CCc1ccc(CNC(=O)CN2C(=O)CSc3c2c(C)nn3-c2ccccc2)cc1, CCn1c(=O)n(-c2ccc(F)cc2)c(=O)c2sc3ccccc3c21, CCCCOc1ccc(CNC(=O)Cc2ccc(NC(=O)N3CCCCc4ccccc43)cc2)cc1, CCOC(=O)c1cc(-c2ccc(C)cc2)n(CC(=O)Nc2ccccc2F)c1C, CCOc1ccc(NC(=O)CCn2c(=O)c3cccn3c3cccnc32)cc1, CC1CCC(NC(=O)CCc2cn(Cc3ccccc3Cl)c3ccccc23)CC1 (configuration not stated), Cc1cc2nn(-c3ccccc3)nc2cc1NC(=O)COc1ccc(Cl)cc1, Cc1nn(-c2ccc(F)cc2)c(-n2cccc2)c1C(=O)N1CCN(c2ccccc2)CC1, COc1ccc(NC(=O)CSC2=Nc3ccccc3C3=NC(CCC(=O)NCc4cccs4)C(=O)N23)cc1 (configuration not stated), Cc1ccc(NC(=O)CSc2nnc(-c3cc4occc4n3C)n2-c2ccccc2C)c(Cl)c1, Cc1ccc(CN2C(=O)N(c3ccc(F)cc3)C(=O)C2CC(=O)Nc2ccc(Cl)cc2)cc1 (configuration not stated), CCOc1ccc(NC(=O)CSc2nc3c(oc4ccccc43)c(=O)n2-c2cc(C)cc(C)c2)cc1, CC1=C(C(=O)NCc2cccc(Br)c2)C2(CCCCC2)OC1=O, Cc1ccc(C2c3[nH]c4ccccc4c3CCN2C(=O)c2ccccc2Br)cc1 (configuration not stated), Cc1ccc(C(=O)Nc2c(-c3ccccc3)nc3ccccn23)cc1, CCC(C(=O)OCc1cc(=O)n2nc(C)sc2n1)c1ccccc1 (configuration not stated), CCOC(=O)C1CCCN(C(=O)C2CCN(S(=O)(=O)c3c(C)noc3/C=C/c3ccccc3F)CC2)C1 (configuration not stated), CCCN(CCC)CCCNC(=O)c1cn(CC)c2ccc(S(=O)(=O)N(C)C3CCCCC3)cc2c1=O, CCOC(=O)c1c(C)[nH]c(CCC(=O)Nc2c(C)cccc2CC)c1C, O=C(CSc1nc2c(oc3ccccc32)c(=O)n1-c1ccccc1)Nc1ccccc1F

Activity change, negative = inhibition, inactive:
COCCCNc1nc(NCc2cccc(Cl)c2)c2cnn(C)c2n1 -0.637%, COc1cc(OC)c(NC(=O)N2CC3CCCN3c3ccccc32)cc1Cl (configuration not stated) -6.98%, CC(C)C(NS(=O)(=O)c1ccc2c(c1)oc(=O)n2C)C(=O)NCCc1ccccc1 (configuration not stated) 1.57%, Cc1ccc(C(c2cccc(Br)c2)c2c(C)[nH]c3ccccc23)s1 (configuration not stated) -8.18%, O=c1c2ccccc2n2c(-c3ccc(Cl)cc3)nnc2n1CCc1ccccc1 -25.4%, O=C(Cn1ncc2c3ccccc3n(Cc3ccc(F)cc3)c2c1=O)NCCC1=CCCCC1 8.98%, Cc1ccc(CNc2ncnc3c2nnn3C)cc1 17.5%, Cc1cn2c(=O)cc(COC(=O)c3cccc(NC(=O)c4ccccc4Cl)c3)nc2s1 7.83%, CCC(CC)c1nn2c(=O)cc(COc3ccc(NC(=O)c4ccc(C)cc4)cc3)nc2s1 5.23%, Cc1c(C(=O)Nc2ccc(C(C)C)cc2)sc2nc3n(c(=O)c12)CCC3 1.82%, Cc1nn(C(=O)c2ccc(Cl)cc2)c(C)c1S(=O)(=O)N1CCOCC1 1.99%, CC(C)(C)OC(=O)N1CCC(c2c(C(=O)N3CCN(c4ccccc4)CC3)cnn2-c2ccccc2)CC1 4.32%, CCOC(=O)c1c(Nc2ccc(F)cc2)nnc(-c2ccccc2)c1-c1ccccc1 59.5%, COc1ccc(-c2nc(SCC(=O)N3CCN(c4ccc(F)cc4)CC3)n[nH]2)cc1 -1.61%, COc1ccc(CCNC(=O)c2ccc3c(c2)N(Cc2cc(C)ccc2C)C(=O)c2ccccc2S3=O)cc1OC (configuration not stated) -3.18%, O=C(c1ccccc1Cl)N(Cc1ccco1)c1ccccn1 3.22%, CCCN(C(=O)c1cc2ccc3cccnc3c2[nH]1)c1ccc(F)cc1 -3.06%, COC(=O)c1sc2cccc(F)c2c1S(=O)(=O)Nc1ccc(N(C)C)cc1 1.97%, Cc1cc(Br)ccc1NC(=O)Cn1cnc2sc(C)c(S(=O)(=O)N3CCN(C)CC3)c2c1=O 3.98%, CC(=O)N1CCC2(CC1)OC(=O)C(C)=C2C(=O)Nc1cc(C)ccc1C -2%, COc1ccc(CCCc2nnc(SCC(=O)Nc3cc(C)ccc3C)o2)cc1 1.91%, COC(=O)c1ccccc1NC(=O)c1ccc(COc2cc(C)cc(C)c2)o1 -15.9%, CCc1ccc(-c2[nH]nc3nc(-c4ccc(OC)cc4)cc(C(=O)NCCCOC)c23)cc1 1.01%, COc1ccc(Br)c2c1-c1nc(NC(=O)c3ccccc3F)sc1C2 -3.18%, COc1ccc(CNC(=O)Cc2c(C)c3c(cc(C)c4c(C)coc43)oc2=O)cc1OC 7.56%, Cc1nc2cccnc2n1C1CCN(S(=O)(=O)N(C)C)CC1 42.3%, COc1ccc(Cl)cc1NC(=O)Cn1c(=O)n(Cc2cccs2)c(=O)c2cccnc21 7.01%, CC(=O)Nc1ccc(-n2c(CCC(=O)O)ccc2-c2ccc(Br)cc2)cc1 1.18%, CC1=C(C(=O)O)N2C(=O)[C@@H](NC(=O)C(N)c3ccccc3)[C@H]2SC1 (some centres not stated) 2.42%, Cc1nn(CC(=O)NCc2ccc(N(C)C)cc2)c(=O)c2c(C)n(-c3ccc(Cl)cc3)nc12 -0.961%, Cc1nc2ccc(S(=O)(=O)N(CC(=O)Nc3cccc(Cl)c3)Cc3ccccc3)cc2s1 0.0734%, Cc1cc(NC(=O)c2cc(-c3cccc(Cl)c3)on2)nn1Cc1ccc(Cl)cc1 -2.42%, CCCN(CCC)C(=O)Cn1c(=O)n(-c2ccc(C)c(C)c2)c(=O)c2c3c(sc21)CCCCC3 13.8%, CCOc1ccc(Cn2nnc(C(=O)Nc3cccc(SC)c3)c2N)cc1 7.08%, Cc1ccc(C)c(Cn2c3ccccc3c3cnn(CC(=O)NC4CCC(C)CC4)c(=O)c32)c1 (configuration not stated) 0.969%, O=C(NCCc1ccccc1)C1CCN(c2ncnc3c2nc2n3CCCCC2)CC1 -2.76%, COC(=O)CN1C(=O)CSc2ccc(S(=O)(=O)Nc3cccc(Br)c3)cc21 -1.14%, Cc1ncc(CO)c2c1Oc1nc(-c3ccc(F)cc3)nc(SCC(=O)N3CCCCC3)c1C2 4.26%, Cc1ccccc1CNC(=O)C1CCN(S(=O)(=O)Cc2ccccc2)CC1 -7.24%, COc1cc(/C=C/c2nc(C#N)c(N3CCCCC3)o2)cc(OC)c1OC -8.65%, CCOc1ccc(-c2nonc2NC(=O)c2ccco2)cc1 -8.33%, CCCCOC(=O)/C(C#N)=C/c1ccc(-c2cccc(C(F)(F)F)c2)o1 1.12%, Cc1nnc(N2CCC(C(=O)Nc3ccc(F)cc3)CC2)c2nn(-c3ccc(Cl)cc3)c(C)c12 6.98%, COc1ccc2c(c1)-c1nc(NC(=O)c3ccc(OC)c(Br)c3)sc1CC2 -3.92%, COc1ccc(OC)c(NC(=O)c2c(NCc3sccc3C)sc3c2CCCCC3)c1 -0.673%, Cc1cccc(-c2noc(CN(C3CCCCC3)S(=O)(=O)c3ccc(F)cc3)n2)c1 1.33%, COc1ccc(NC(=O)CSc2nc3ccccc3nc2N2CCC(C)CC2)cc1 -9.56%, COc1ccc(CNC(=O)CN(c2ccc(C(C)C)cc2)S(=O)(=O)c2c(C)nn(C)c2C)cc1 -9.45%, CCc1ccc(NC(=O)CC2C(=O)N(c3cccc(C)c3)C(=O)N2CCC(C)C)cc1 (configuration not stated) -1.59%, O=C(CSC1=Nc2ccccc2N=C(c2ccc(F)cc2)C1)Nc1cccc(C(F)(F)F)c1 0.766%, COc1ccccc1OCC(O)COC(N)=O (configuration not stated) -12.4%, CCC(=O)N1CCc2cc(Br)cc(S(=O)(=O)CCC(=O)N3CCN(c4ccc(F)cc4)CC3)c21 0.878%, Cc1ccccc1OCC(=O)OCc1cc(=O)n2nc(C3CC3)sc2n1 -4.93%, COc1ccccc1NC(=O)CCn1nc(-c2ccccc2OC)c2c(C)cc(C)nc21 -9.32%, Cc1ccccc1NC(=O)Nc1nnc(N2CCCCCC2)s1 -4.97%, Cc1cc(C)c(C)c(OCC(=O)Nc2ccc(S(=O)(=O)Nc3nc(C)cc(C)n3)cc2)c1 1.59%, COc1ccc(CC(=O)NCCc2sc3nc(-c4ccc(OC)cc4)nn3c2C)cc1 -12.7%, O=C(C1CCC1)N1CCCc2cc(S(=O)(=O)N3CCN(c4ccccc4)CC3)ccc21 -0.0792%, COc1cccc(N2CCN(C(=O)C3Cc4ccccc4N3C(C)=O)CC2)c1 (configuration not stated) 1.64%, CCc1ccc(OCc2cc(=O)n3c4c(sc3n2)CCCC4)cc1 10.2%, Cc1ccc(S(=O)(=O)c2nnn3c2nc(NC(C)C)c2sccc23)cc1 -0.519%, CCC(=O)Nc1ccccc1-c1nc2ccccc2n(CC(=O)c2ccc(Cl)cc2)c1=O -0.097%, CCOC(=O)N1CCc2c(sc(NCc3cccc(F)c3)c2C(=O)Nc2ccc(OC)cc2OC)C1 -1.24%, CCNc1ncnc2c1nnn2C -2.15%, CC(C)OC(=O)C(C(=O)C(F)(F)F)c1cc(NS(=O)(=O)c2ccc3c4c(cccc24)C(=O)N3)ccc1O (configuration not stated) 6.7%, Cc1cccc(-c2nc3ccccc3n2Cc2ccccc2)c1 9.9%, Nc1ccn([C@@H]2CS[C@H](CO)O2)c(=O)n1 13.4% [at 92.2 µM], COc1ccccc1NC(=O)C1=C(C)Nc2nc(CCCO)nn2C1c1cccc(O)c1 (configuration not stated) -2.21%, COc1ccc2c(Sc3ccc(C)cc3)c(C(=O)NCc3ccc(F)cc3)[nH]c2c1 -3.08%, CCCC(=O)Nc1cc(C(=O)NCc2ccccc2)ccc1S(=O)(=O)c1ccc(Cl)cc1 -12.5%, CC(C)c1ccc(NC(=O)CC2NCCNC2=O)cc1 (configuration not stated) 53.4%, O=C(Nc1cccc(NC(=O)c2ccccc2F)c1)c1ccccc1 -3.87%
